# Where two headings read alike, the source gives them in different places. Results are given in words; binding and its absence hold for the method and conditions named. Binding seen in cells or lysates may run through a third protein. Some binding calls cover weakened binding; strength is not graded here. For some of these results: Sequences can lack the tags named with a protein.
# By UniProt entry, the sequences of proteins in these tests, tags left out.
# UniProt P61809: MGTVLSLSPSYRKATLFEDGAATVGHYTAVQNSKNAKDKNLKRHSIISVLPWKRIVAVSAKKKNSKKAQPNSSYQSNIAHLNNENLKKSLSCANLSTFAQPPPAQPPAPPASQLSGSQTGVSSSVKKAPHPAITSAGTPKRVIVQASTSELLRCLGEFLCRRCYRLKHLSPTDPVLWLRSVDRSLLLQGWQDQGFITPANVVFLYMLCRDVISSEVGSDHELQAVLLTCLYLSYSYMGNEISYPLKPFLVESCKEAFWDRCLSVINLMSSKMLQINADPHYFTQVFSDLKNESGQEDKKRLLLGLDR
# UniProt P61586: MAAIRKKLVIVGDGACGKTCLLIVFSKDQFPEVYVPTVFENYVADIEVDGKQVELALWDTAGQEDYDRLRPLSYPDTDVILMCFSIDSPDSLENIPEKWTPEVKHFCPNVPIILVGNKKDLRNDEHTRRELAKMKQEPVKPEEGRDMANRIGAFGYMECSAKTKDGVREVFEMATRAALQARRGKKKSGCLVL
# UniProt Q60610: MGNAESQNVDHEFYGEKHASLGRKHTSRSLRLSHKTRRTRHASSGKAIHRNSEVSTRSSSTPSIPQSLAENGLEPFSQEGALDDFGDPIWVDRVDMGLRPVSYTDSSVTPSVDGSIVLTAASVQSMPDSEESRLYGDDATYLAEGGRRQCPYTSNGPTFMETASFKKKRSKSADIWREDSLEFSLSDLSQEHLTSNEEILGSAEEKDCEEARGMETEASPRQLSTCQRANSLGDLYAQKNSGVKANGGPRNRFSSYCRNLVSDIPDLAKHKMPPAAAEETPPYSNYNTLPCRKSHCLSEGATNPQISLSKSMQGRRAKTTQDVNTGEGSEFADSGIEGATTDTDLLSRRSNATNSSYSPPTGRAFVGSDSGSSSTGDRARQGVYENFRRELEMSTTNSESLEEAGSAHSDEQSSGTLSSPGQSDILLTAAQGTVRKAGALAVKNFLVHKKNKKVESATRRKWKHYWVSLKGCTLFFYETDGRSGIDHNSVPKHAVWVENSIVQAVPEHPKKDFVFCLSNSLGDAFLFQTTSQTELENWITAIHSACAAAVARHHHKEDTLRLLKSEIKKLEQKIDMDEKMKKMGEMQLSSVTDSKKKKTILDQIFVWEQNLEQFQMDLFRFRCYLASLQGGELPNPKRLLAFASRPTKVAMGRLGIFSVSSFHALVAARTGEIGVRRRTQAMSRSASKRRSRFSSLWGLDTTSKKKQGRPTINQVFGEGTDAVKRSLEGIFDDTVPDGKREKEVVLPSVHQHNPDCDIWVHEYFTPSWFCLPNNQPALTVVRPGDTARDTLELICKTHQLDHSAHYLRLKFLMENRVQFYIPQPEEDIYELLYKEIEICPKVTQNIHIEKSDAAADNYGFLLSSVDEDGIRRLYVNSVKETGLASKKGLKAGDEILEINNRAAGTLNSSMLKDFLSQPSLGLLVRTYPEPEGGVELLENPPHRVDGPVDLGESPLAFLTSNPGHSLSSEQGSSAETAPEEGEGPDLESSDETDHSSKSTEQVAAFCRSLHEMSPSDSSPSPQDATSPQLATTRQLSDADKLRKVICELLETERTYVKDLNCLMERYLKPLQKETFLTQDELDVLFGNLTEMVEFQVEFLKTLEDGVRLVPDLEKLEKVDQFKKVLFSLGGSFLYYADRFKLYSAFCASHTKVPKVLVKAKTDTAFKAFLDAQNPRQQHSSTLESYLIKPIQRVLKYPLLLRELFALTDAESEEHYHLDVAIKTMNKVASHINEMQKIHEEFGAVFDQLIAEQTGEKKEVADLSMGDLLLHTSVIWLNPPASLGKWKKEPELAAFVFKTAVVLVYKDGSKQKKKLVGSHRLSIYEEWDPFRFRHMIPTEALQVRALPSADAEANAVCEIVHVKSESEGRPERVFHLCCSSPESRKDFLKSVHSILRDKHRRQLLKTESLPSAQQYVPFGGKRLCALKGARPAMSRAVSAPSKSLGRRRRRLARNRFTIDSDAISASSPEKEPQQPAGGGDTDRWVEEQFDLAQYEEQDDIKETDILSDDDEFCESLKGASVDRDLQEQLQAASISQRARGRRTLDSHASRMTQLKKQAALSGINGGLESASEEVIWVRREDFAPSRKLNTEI
# T1: FLAG-tagged Lfc (UniProt Q60875)
# T1 sequence: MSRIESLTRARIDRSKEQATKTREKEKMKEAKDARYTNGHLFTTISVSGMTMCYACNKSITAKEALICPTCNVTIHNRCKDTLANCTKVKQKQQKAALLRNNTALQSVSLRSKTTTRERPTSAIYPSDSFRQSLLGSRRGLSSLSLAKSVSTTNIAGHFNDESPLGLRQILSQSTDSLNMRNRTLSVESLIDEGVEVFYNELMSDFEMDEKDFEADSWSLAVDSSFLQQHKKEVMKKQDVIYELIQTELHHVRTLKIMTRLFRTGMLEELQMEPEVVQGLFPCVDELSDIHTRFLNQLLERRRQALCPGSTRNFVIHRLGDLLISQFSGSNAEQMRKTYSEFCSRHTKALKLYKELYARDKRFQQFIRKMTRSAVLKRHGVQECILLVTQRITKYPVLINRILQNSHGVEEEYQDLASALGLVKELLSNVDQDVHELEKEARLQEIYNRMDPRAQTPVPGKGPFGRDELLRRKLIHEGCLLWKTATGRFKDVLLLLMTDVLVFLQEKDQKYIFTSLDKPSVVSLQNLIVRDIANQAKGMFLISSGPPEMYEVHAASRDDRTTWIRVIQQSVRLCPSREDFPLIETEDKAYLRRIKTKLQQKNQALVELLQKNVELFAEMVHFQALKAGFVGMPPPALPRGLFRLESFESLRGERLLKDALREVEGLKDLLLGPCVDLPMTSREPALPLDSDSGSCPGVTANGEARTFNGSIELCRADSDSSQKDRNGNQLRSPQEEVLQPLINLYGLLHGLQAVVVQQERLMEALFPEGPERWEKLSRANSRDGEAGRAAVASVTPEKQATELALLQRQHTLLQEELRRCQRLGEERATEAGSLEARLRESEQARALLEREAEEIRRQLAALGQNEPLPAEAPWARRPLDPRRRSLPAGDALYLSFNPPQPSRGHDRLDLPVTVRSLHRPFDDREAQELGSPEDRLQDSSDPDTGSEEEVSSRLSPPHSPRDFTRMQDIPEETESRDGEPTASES
# T2: FLAG-tagged CaMKv (calmodulin kinase-like vesicle-associated) (mouse) (UniProt Q3UHL1)
# T2 sequence: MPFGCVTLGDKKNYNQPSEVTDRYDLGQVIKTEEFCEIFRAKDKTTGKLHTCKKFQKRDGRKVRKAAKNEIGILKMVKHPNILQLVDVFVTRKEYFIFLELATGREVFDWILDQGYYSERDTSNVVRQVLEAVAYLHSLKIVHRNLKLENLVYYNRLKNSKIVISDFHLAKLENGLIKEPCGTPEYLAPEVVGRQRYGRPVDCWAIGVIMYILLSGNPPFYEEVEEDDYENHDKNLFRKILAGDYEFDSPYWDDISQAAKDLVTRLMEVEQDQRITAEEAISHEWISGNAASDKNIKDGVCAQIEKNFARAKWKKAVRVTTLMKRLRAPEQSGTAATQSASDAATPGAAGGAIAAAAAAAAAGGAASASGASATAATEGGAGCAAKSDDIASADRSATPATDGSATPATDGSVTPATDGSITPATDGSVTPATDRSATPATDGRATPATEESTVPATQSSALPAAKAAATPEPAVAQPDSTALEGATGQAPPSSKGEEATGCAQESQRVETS
# T3: Lfc (GEF-H1), endogenous (mouse (endogenous in brain)) (UniProt Q60875)
# T3 sequence: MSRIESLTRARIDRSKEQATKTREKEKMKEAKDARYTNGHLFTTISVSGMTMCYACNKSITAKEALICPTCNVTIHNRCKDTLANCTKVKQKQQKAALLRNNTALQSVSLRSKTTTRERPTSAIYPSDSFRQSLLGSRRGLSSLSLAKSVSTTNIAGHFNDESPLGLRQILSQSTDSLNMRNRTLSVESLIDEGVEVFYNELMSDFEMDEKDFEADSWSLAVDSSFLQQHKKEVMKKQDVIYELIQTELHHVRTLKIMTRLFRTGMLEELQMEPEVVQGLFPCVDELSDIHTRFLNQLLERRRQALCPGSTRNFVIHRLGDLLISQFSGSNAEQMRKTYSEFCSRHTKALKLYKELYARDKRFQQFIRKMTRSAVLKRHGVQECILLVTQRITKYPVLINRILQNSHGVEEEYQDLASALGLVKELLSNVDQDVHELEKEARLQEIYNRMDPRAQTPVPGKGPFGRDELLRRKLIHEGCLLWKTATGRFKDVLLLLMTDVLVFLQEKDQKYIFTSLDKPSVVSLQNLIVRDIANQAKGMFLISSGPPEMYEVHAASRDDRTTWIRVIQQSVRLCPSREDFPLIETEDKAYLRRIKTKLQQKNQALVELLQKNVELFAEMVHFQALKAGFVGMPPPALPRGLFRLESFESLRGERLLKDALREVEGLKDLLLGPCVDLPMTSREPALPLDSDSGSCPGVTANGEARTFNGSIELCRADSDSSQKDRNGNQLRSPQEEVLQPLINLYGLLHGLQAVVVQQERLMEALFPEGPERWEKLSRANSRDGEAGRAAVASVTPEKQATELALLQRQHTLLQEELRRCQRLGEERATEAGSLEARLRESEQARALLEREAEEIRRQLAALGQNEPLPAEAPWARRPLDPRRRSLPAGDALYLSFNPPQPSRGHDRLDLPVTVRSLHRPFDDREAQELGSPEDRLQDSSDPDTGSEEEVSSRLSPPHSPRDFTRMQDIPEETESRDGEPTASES
# Legend:
# [1] = target: T1, FLAG-tagged Lfc; experiment: co-IP; FLAG-tagged Lfc and HA-tagged RhoA co-expressed in HEK293T cells; lysate in buffer A; western blot
# [2] = target: T2, FLAG-tagged CaMKv (calmodulin kinase-like vesicle-associated) (mouse); experiment: pull-down; FLAG-tagged CaMKv as bait; proteins pulled down from the synaptosome, detected by western blot
# [3] = target: T2, FLAG-tagged CaMKv (calmodulin kinase-like vesicle-associated) (mouse); experiment: as above; remark: listed apart in the source
# [4] = target: T3, Lfc (GEF-H1), endogenous (mouse (endogenous in brain)); experiment: co-IP; endogenous proteins in brain homogenate and synaptosome fractions; Lfc antibody (2 ug, GTX125893), protein G-Sepharose, buffer A (20 mM Tris pH 8.5, 50 mM NaCl, 1 mM EDTA, 1 mM NaF, 0.5% Nonidet P-40), 4 C; IgG as negative control
# [5] = target: p35, activator of Cdk5, endogenous (mouse (endogenous in brain)) (UniProt P61809); experiment: co-IP; endogenous proteins from mouse brain lysates; western blot
# [6] = target: cyclin-dependent kinase 5 (Cdk5), endogenous (mouse (endogenous in brain)) (UniProt P49615); experiment: as above
molecule,measurement,setting,value
HA-tagged RhoA (from UniProt P61586 1-193),binding,[1],binds
"TIAM1, endogenous (from UniProt Q60610 1-1591)",binding,[2],no binding
"Lfc (GEF-H1), endogenous (protein, UniProt Q60875 1-985) MSRIESLTRARIDRSKEQATKTREKEKMKEAKDARYTNGHLFTTISVSGMTMCYACNKSITAKEALICPTCNVTIHNRCKDTLANCTKVKQKQQKAALLRNNTALQSVSLRSKTTTRERPTSAIYPSDSFRQSLLGSRRGLSSLSLAKSVSTTNIAGHFNDESPLGLRQILSQSTDSLNMRNRTLSVESLIDEGVEVFYNELMSDFEMDEKDFEADSWSLAVDSSFLQQHKKEVMKKQDVIYELIQTELHHVRTLKIMTRLFRTGMLEELQMEPEVVQGLFPCVDELSDIHTRFLNQLLERRRQALCPGSTRNFVIHRLGDLLISQFSGSNAEQMRKTYSEFCSRHTKALKLYKELYARDKRFQQFIRKMTRSAVLKRHGVQECILLVTQRITKYPVLINRILQNSHGVEEEYQDLASALGLVKELLSNVDQDVHELEKEARLQEIYNRMDPRAQTPVPGKGPFGRDELLRRKLIHEGCLLWKTATGRFKDVLLLLMTDVLVFLQEKDQKYIFTSLDKPSVVSLQNLIVRDIANQAKGMFLISSGPPEMYEVHAASRDDRTTWIRVIQQSVRLCPSREDFPLIETEDKAYLRRIKTKLQQKNQALVELLQKNVELFAEMVHFQALKAGFVGMPPPALPRGLFRLESFESLRGERLLKDALREVEGLKDLLLGPCVDLPMTSREPALPLDSDSGSCPGVTANGEARTFNGSIELCRADSDSSQKDRNGNQLRSPQEEVLQPLINLYGLLHGLQAVVVQQERLMEALFPEGPERWEKLSRANSRDGEAGRAAVASVTPEKQATELALLQRQHTLLQEELRRCQRLGEERATEAGSLEARLRESEQARALLEREAEEIRRQLAALGQNEPLPAEAPWARRPLDPRRRSLPAGDALYLSFNPPQPSRGHDRLDLPVTVRSLHRPFDDREAQELGSPEDRLQDSSDPDTGSEEEVSSRLSPPHSPRDFTRMQDIPEETESRDGEPTASES",binding,[3],binds
"CaMKv, endogenous (protein, UniProt Q3UHL1 1-512) MPFGCVTLGDKKNYNQPSEVTDRYDLGQVIKTEEFCEIFRAKDKTTGKLHTCKKFQKRDGRKVRKAAKNEIGILKMVKHPNILQLVDVFVTRKEYFIFLELATGREVFDWILDQGYYSERDTSNVVRQVLEAVAYLHSLKIVHRNLKLENLVYYNRLKNSKIVISDFHLAKLENGLIKEPCGTPEYLAPEVVGRQRYGRPVDCWAIGVIMYILLSGNPPFYEEVEEDDYENHDKNLFRKILAGDYEFDSPYWDDISQAAKDLVTRLMEVEQDQRITAEEAISHEWISGNAASDKNIKDGVCAQIEKNFARAKWKKAVRVTTLMKRLRAPEQSGTAATQSASDAATPGAAGGAIAAAAAAAAAGGAASASGASATAATEGGAGCAAKSDDIASADRSATPATDGSATPATDGSVTPATDGSITPATDGSVTPATDRSATPATDGRATPATEESTVPATQSSALPAAKAAATPEPAVAQPDSTALEGATGQAPPSSKGEEATGCAQESQRVETS",binding,[4],binds
same,binding,[5],binds
same,binding,[6],binds
"Ephexin1, endogenous (protein, UniProt Q8CHT1 1-710) METKNSEDWGKPQRKSESSSRKSNHGPAEMRPALPPENREAPETGEETQNEEPRRLIPIQRHSLFNRAVRHRHKARSTSERRASDQADLPKMGKSVNERSAFNLPQGRLSPWRTPAQRDTGAQEASESSSTPGNGTTPEECPALTDSPTTLTEALQMIHPIPADSWRNLIEQIGLLYQEYRDKSTLQEIETRRQQDAEIQGNSDGSQVGEDAGEEEEEEEEGEEEELASPPERRALPQICLLSNPHSRFNLWQDLPEIQSSGVLDILQPEEIRLQEAMFELVTSEASYYKSLNLLVSHFMENERLKKILHPSEAHILFSNVLDVMAVSERFLLELEHRMEENIVISDVCDIVYRYAADHFSVYITYVSNQTYQERTYKQLLQEKAAFRELIAQLELDPKCKGLPFSSFLILPFQRITRLKLLVQNILKRVEERSEREGTALDAHKELEMVVKACNEGVRKMSRTEQMISIQKKMEFKIKSVPIISHSRWLLKQGELQQMSGPKTSRTLRTKKLFREIYLFLFNDLLVICRQIPGDKYQVFDSAPRGLLRVEELEDQGQTLANVFILRLLENADDREATYMLKASSQSEMKRWMTSLAPNRRTKFVSFTSRLLDCPQVQCVHPYVAQQPDELTLELADILNILEKTEDGWIFGERLHDQERGWFPSSMTEEILNPKIRSQNLKECFRVHKMEDPQRSQNKDRRKLGSRNRQ",binding,[3],no binding

# Reference: publication PMC5095516
